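How tested: cells in 96-well plates exposed to compound for 48 hours at five concentrations. GI50 = concentration required for 50% inhibition of growth. Definition used: TGI = concentration required for complete inhibition of growth.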 Bounds are passed on as bounds.

Drawing on PubChem BioAssay (NCI), this text covers TGI and GI50 for 60 compounds.

The experiment has as its system NCI-H322M lung. Put plainly: NCI tumour cell line growth inhibition, 48 h.
`COc1ccc(-c2c(C#N)c(NC(=S)NC(=O)c3ccccc3)nc3c2CCCC3)cc1OC` came in with a TGI greater than 100 µM.

On to `CSc1nc(NC2OC(COC(C)=O)C(OC(C)=O)C(OC(C)=O)C2OC(C)=O)c2c(OC(C)=O)c(C)c(=O)oc2n1` (stereo not given), for which the TGI was greater than 100 µM.

Turning to `Nc1nccc(-c2c(-c3ccc(F)cc3)ncn2CCCN2CCOCC2)n1`, the GI50 was greater than 25 µM and the TGI was greater than 25 µM.

`O=C(/C=C/c1ccccc1Cl)c1ccccc1Cl`: the TGI is greater than 100 µM.

Take `COC(=O)[C@]12CCC(C)(C)C[C@H]1C1=CC[C@@H]3[C@@]4(C)C/C(=C/c5cccnc5)C(=O)C(C)(C)[C@@H]4CC[C@@]3(C)[C@]1(C)CC2`: the GI50 is 17 µM and the TGI worked out at 65.3 µM.

`CCCN(CCCCC(NC(C)=O)C(=O)NCc1ccccc1)C(=O)N(CCCl)N=O` (stereo not given) gave a TGI greater than 100 µM.

In turn, `C/C(=N\NC(=S)N1CC2CCC(CC2)C1)c1ccncn1` came in with a TGI of 5.25 µM.

For `CCOC(=O)C(=C(SC)SC)c1nn2c(=O)cc(C)nc2s1`, the TGI stood at 49.7 µM.

Regarding `COc1cc2c(/C=C3/C(=O)Nc4cccc(Cl)c43)c(Cl)n(Cc3ccccc3)c2cc1C`, the GI50 was 12 µM and the TGI was greater than 80.2 µM.

In the case of `Cn1cc(C2=C(c3cn(CCCN=C(N)N)c4ccccc34)C(=O)NC2=O)c2ccccc21`, the GI50 is greater than 25 µM and the TGI was greater than 25 µM.

`O=C1C(Br)=CC2(C=C1Br)CCN=c1c(O)c3c(c(O)c12)=NC=N3` returned a TGI of 29.9 µM.

In the case of `N#CCCN(c1ccc(/C=C2\N=C(c3ccc(Cl)cc3)OC2=O)cc1)S(=O)(=O)c1ccccc1`, the TGI was greater than 100 µM.

As for `Clc1cccc(Cl)c1C1SCC2=Nc3ccccc3CN21` (stereo not given), the TGI is 69.6 µM.

Regarding `CCOC(=O)/C(O)=C(/C=NC(=S)c1ccncc1)C(=O)OCC`, the TGI was greater than 100 µM.

On to `C=C(C)[C@@H](C(=O)OC)N1C(=O)c2ccccc2C1=O`, for which the TGI was greater than 100 µM.

On to `O=[N+]([O-])c1ccccc1N=Nc1c(O)sc2ccccc12`, for which the TGI was greater than 100 µM.

For the compound `COc1ccc(-n2cc(-c3cc(OC)c(OC)c(OC)c3)[nH]c2=S)cc1OC`, the GI50 was greater than 100 µM and the TGI is greater than 100 µM.

As for `C[C@]12CC[C@@H]3c4ccc(O)cc4C[C@@H](CCCCCCCCCS(=O)CCCC(F)(F)C(F)(F)F)[C@H]3[C@@H]1CC[C@@H]2O` (stereo not given in full), the GI50 was greater than 68.7 µM and the TGI is greater than 100 µM.

Regarding `COc1ccc(/C(=N/Nc2ccc([N+](=O)[O-])cc2)Sc2cc(Cl)c(C)cc2S(N)(=O)=O)cc1`, the GI50 was 2.52 µM and the TGI was 7.67 µM.

Compound `COC(=O)C1=C(c2ccc3c(c2)OCO3)O[C@H](c2ccc3c(c2)OCO3)[C@H]1COC(C)=O` registered a TGI greater than 100 µM.

`CCOC(=O)CC(NC(=O)c1nc[nH]c1[N+](=O)[O-])C(=O)OCC` (stereo not given) showed a TGI greater than 100 µM.

As to `NC1C2(CCCCCC2)NC(=O)C12CCCCCC2` (stereo not given), the TGI was greater than 100 µM.

Compound `O=C1C2=C(CC3C(C2)C3(Br)Br)C(=O)C2=C1CC1C(C2)C1(Br)Br` (stereo not given) registered a TGI greater than 100 µM.

The compound `COc1cc(Cc2cc(OC)c(OC)c(OC)c2)ccc1O` displayed a TGI greater than 100 µM.

For `COc1ccc(S(=O)(=O)N(Cc2ccc3c(n2)C=CC(C)(C)O3)C2CCC2)cc1OC`, the GI50 is less than 0.01 µM and the TGI was 0.253 µM.

Consider `COC1(OC)C2(Cl)CCC1(Cl)C(OC(C)=O)C2` (stereo not given), for which the TGI was greater than 100 µM.

`O=C(O)C1C(C(=O)O)C(C(=O)O)C1C(=O)O` (stereo not given) displayed a TGI greater than 100 µM.

In turn, `CC1=C2C3=C(C)C(=O)C(C)(C)CC[C@@]3(C)[C@]2(C)CCC(C)(C)C1=O` registered a TGI greater than 100 µM.

`Cc1c(Cc2ccccc2)n(COCCCO)c(=O)[nH]c1=O` showed a TGI greater than 100 µM.

`CNC(=O)N1CCN(C(=O)NC)CCN(C(=O)NC)CC1` came in with a TGI greater than 100 µM.

The compound `O=C(NC1CCCCCC1)C1C(=O)N(C2CCCCCC2)C(=O)/C1=N\O` (stereo not given) yielded a TGI greater than 100 µM.

`CN(C)C(=S)/N=c1\ss/c(=N\C(=S)N(C)C)n1-c1ccc2c(c1)OCO2` displayed a TGI greater than 100 µM.

Compound `Cc1cc(NS(=O)(=O)c2ccc(N=Nc3c(O)c(C(=O)O)cc4ccccc34)cc2)nc(C)n1` showed a TGI greater than 100 µM.

In turn, `Nc1nc(Cl)cc(NCC2(CO)CC(OCc3ccccc3)C2)n1` (stereo not given) returned a TGI greater than 100 µM.

As for `O=C(CC(=O)N1N=C(c2ccccc2)C(N=Nc2ccc(Cl)cc2)C1=O)Nc1ccccc1Cl` (stereo not given), the TGI was greater than 100 µM.

Turning to `Cc1ccc(S(=O)(=O)OC2C3OC(C)(C)OC3OC2C(c2cc(O)c3c(c2O)C(=O)c2ccccc2C3=O)c2cc(O)c3c(c2O)C(=O)c2ccccc2C3=O)cc1` (stereo not given), the TGI was greater than 10 µM.

For `C=C1C(=O)O[C@H]2[C@H]1CC/C(COC(=O)/C=C\C(=O)NCc1ccc(Cn3c(=O)sn(-c4ccc(C#N)cc4)c3=O)cc1)=C\CC[C@@]1(C)O[C@@H]21`, the GI50 was 2.76 µM and the TGI worked out at 8.95 µM.

Turning to `CCCNC(=S)N/N=C(\C)c1ccccn1`, the GI50 is 0.105 µM and the TGI was greater than 100 µM.

As for `O=c1c2ccccc2nnn1-c1n[nH]c2ccccc12`, the TGI is greater than 100 µM.

Consider `Cc1ccc(N=NC(C(=O)c2ccccc2)C(=O)c2ccccc2)cc1`, for which the TGI stood at 62.5 µM.

Consider `COc1ccc(OC)c(/C=C/NC=O)c1`, for which the TGI was greater than 100 µM.

With `CN(C)/N=C(\CCN1CCCC1)CC(c1ccccc1)c1c(O)c2ccccc2oc1=O` (stereo not given), the TGI was greater than 100 µM.

`CC(=O)O[C@@H]1C=C(C)[C@H](CBr)O[C@@]2(C)CC[C@H](Br)C(C)(C)[C@H]12` gave a TGI greater than 100 µM.

`CCOC(=O)Cn1sc2ncc([N+](=O)[O-])cc2c1=O` came in with a TGI of 31.5 µM.

`O=C1SCC(O)=C1/C=N/Nc1nc2ccccc2o1` gave a TGI greater than 100 µM.

The compound `Cc1ccc(C(=O)/C=C/c2ccccc2O)c(C)c1` returned a TGI greater than 100 µM.

As for `CNC=O.[O]=[Ge].[O]=[Ge].[O]=[Ge].[O]=[Ge][OH].[O]=[Ge][OH]`, the TGI is greater than 100 µM.

As for `C[C@]12CC[C@@H]3c4ccc(O)cc4CC[C@H]3[C@@H]1CC[C@@H]2NS(=O)(=O)c1ccc(C(F)(F)F)cc1`, the GI50 was 3.84 µM and the TGI was found to be 15 µM.

For the compound `CCCCn1c(-c2ccc(C(=O)O/N=C(\N)c3ccc(OC)cc3)cc2)nc(-c2ccccc2)c1-c1ccccc1`, the GI50 is 3.15 µM and the TGI is greater than 100 µM.

For the compound `C#CC[C@]12CC(=O)CC[C@H]1CC(=O)C2`, the TGI is greater than 100 µM.

For the compound `C[C@]12CC[C@@H]3c4ccc(Oc5nc(N6CC6)nc(N6CC6)n5)cc4CC[C@H]3[C@@H]1CCC2=O`, the GI50 is 5.78 µM and the TGI came out at 17.9 µM.

For the compound `CCC(C)(O)c1cn(-c2cccc(S(=O)(=O)O)c2)nn1` (stereo not given), the TGI was greater than 100 µM.

In turn, `CCN(CC)C(=O)C/C(C)=N/NC(=O)c1ccncc1` came in with a TGI greater than 100 µM.

Regarding `CCCCC/C=C/C/C=C/CCCCCCCC1=NC(C)(C)CN1C(C)C`, the GI50 is 1.96 µM and the TGI amounted to 4.21 µM.

`NS(=O)(=O)c1nnc(NC(=O)c2ccccc2)s1` came in with a TGI greater than 100 µM.

Take `CC/C(=N/O)c1ccc(Br)s1`: the TGI is greater than 100 µM.

`CCCCNC(=O)NS(=O)(=O)c1ccc(N2N=C(c3ccc(C)cc3C)CC2c2ccc(N(C)C)cc2)cc1` (stereo not given): the GI50 is 5.19 µM and the TGI was greater than 100 µM.

Regarding `COC(=O)c1ccc2c(c1)CC1(C2)Cc2cc3c(cc2C1=O)CCC3` (stereo not given), the TGI was found to be 74.1 µM.

As for `CSc1ccc(C2C(Cl)C(=O)N2NC(=O)c2c(Cl)c(Cl)c(Cl)c(Cl)c2-c2nc3ccccc3[nH]2)cc1` (stereo not given), the TGI is greater than 100 µM.

For the compound `CN(C)CC(CN(C)C)c1ccccn1`, the TGI was greater than 100 µM.
